The campaign covered roughly 420,000 compounds. About 50,000 (12%) were called active. This list was built around the results that the source calls inconclusive (neither active nor inactive); the mix of calls is not that of the screen. Calls follow the shape of the dose curve; as a rule, active = well fitted inhibition curve with a large enough effect; inconclusive = small, poorly fitted or top-dose-only effect; inactive = flat fitted curve, though single readings scatter. Potencies of inconclusive entries are left out as doubtful fits.
assay: qHTS for Inhibitors of human tyrosyl-DNA phosphodiesterase 1 (TDP1): qHTS in cells in presence of CPT; conditions: chicken DT40 Tdp1-/-;hTDP1 cells + 20 nM CPT, ATP luminescence, 48 h; activity change, negative = growth inhibition: at 46.2 µM (top of the series); also: nearly all actives have a fitted effect of over 55% in size
Outline: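 Cell growth measured by CellTiter-Glo luminescence after a minimum 48 h, 37 C compound exposure with 20 nM CPT in Tdp1-knockout DT40 cells stably expressing hTDP1, seeded 400/well; qHTS titration format.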
% is scaled to controls: 0 for no effect and ±100 for the full control effect; potency is read from the fitted curve at half-maximal effect; tags tell the direction and shape of the fitted curve.

SMILES	Potency	activity change, negative = growth inhibition
COc1ccc(-c2csc(NC(=S)NC(=O)c3cccs3)n2)cc1OC	active: 14.6 µM	–
Cc1c(C(=O)OCC(O)=C(C#N)c2nc3ccccc3[nH]2)oc2ccc(Br)cc12	inconclusive [inhibitor, partial curve, poor fit]	–
CCN(c1ccccc1)S(=O)(=O)c1ccc(NC(=O)c2ccco2)cc1	inconclusive [inhibitor, single point]	–
Cc1cccn2c(=O)c(/C=C(\C#N)c3nc4ccccc4n3C)c(Oc3ccc(Br)cc3)nc12	active: 10.3 µM	–
COc1cccc2c1OCC(CN1CCN(CCC(C)C)C(CCO)C1)=C2 (stereo not given)	–	inactive: 21.9%
COc1ccc(OC)c(N=Cc2c(O)[nH]c3ccccc23)c1	inconclusive [inhibitor, single point]	–
CCN(CC)c1ccc(/C=N/NC(=S)NCc2ccccc2)c(O)c1	inconclusive [inhibitor, single point]	–
CCc1noc(C)c1C(=O)N1CCCC(C(=O)c2cc(F)ccc2OC)C1 (stereo not given)	–	inactive: -25.2%
O=c1oc2ccccc2cc1-c1cn2ccccc2n1	inconclusive [inhibitor, partial curve]	–
CCN(CC)c1ccc(CNc2nc3ccccc3n2CCN2CCCCC2)cc1	active: 4.61 µM	–
CCCC(=O)OCCNc1cc(SCCC(=O)OC)c2nonc2c1[N+](=O)[O-]	active: 16.4 µM	–
COc1ccc(-c2cc(C(=O)NCCN3CCOCC3)c3cc(C(C)C)ccc3n2)cc1	inconclusive [inhibitor, single point]	–
CN1C(=O)c2ccccc2Sc2ccc(NC(=O)Nc3ccccc3F)cc21	inconclusive [inhibitor, single point]	–
COc1ccc(CNC(=O)C2CC(C)=CCC2C(=O)O)cc1 (stereo not given)	–	inconclusive: -35.1% [inhibitor]
CCc1noc(C)c1C(=O)Nc1ccc(F)c(F)c1F	–	inactive: 10.4%
Cc1ccc(Cl)c(OCC(=O)N2CCc3ccccc3C2)c1	–	inactive: 4.91%
CC(C)c1ccc(CN2CCN(C(=O)CSc3nnnn3C3CC3)CC2)cc1	inconclusive [inhibitor, single point]	–
CC(C)C(=O)NC(c1ccco1)c1ccc2cccnc2c1O (stereo not given)	active: 3.26 µM	–
CCOc1ccc(C(=O)N2CCN(c3cccc(Cl)c3)CC2)cc1	–	inactive: -19.1%
COc1ccc(CN(CCC(c2ccc3c(c2)OCO3)c2ccccc2OC)C(C)=O)cc1 (stereo not given)	inconclusive [inhibitor, single point]	–
CCc1ccc(NC(=O)c2cc(S(=O)(=O)N3CCc4ccccc43)cn2C)cc1	inconclusive [inhibitor, single point]	–
CCC1(c2ccc(F)cc2)NC(=O)N(CC(=O)Nc2ccc3c(c2)OCCO3)C1=O (stereo not given)	inconclusive [inhibitor, single point]	–
Cc1sc2nc(SCc3ccccc3)n(Cc3ccco3)c(=O)c2c1C	–	inactive: -1.67%

SMILES	Potency	activity change, negative = growth inhibition
COc1ccccc1NC(=O)CSc1nnc(-c2ccccc2)o1	–	inactive: 3.75%
COc1ccc(CNC(=O)C(=O)NCC(c2cccs2)S(=O)(=O)c2ccc(F)cc2)cc1 (stereo not given)	inconclusive [inhibitor, single point]	–
COc1ccc(O)c(C(=O)c2cnn(-c3ccc(Cl)cc3)c2)c1	–	inactive: 1.56%
COc1cccc(CNC(=O)c2ccccc2-c2ccccc2)c1	inconclusive [inhibitor, partial curve]	–
COc1cc(/C=N/NC(=O)c2cccc3ccccc23)cc(OC)c1O	active: 4.61 µM	–
CCOc1ccc(S(=O)(=O)N2CCCC(C(=O)N3CCOCC3)C2)cc1C (stereo not given)	inconclusive [inhibitor, single point]	–
Fc1ccc(-c2cc3nc(-c4ccccc4)cc(N4CCOCC4)n3n2)cc1	active: 13 µM	–
CC[C@H](C)C(C(=O)N1CCN(C(=O)OC(C)(C)C)CC1)n1cc(C(CC(C)C)NC(=O)OC(C)(C)C)nn1 (stereo not given in full)	active: 23.1 µM	–
CC(=O)N1CCCc2cc(S(=O)(=O)N(C)CC(=O)Nc3ccc(F)cc3Cl)ccc21	inconclusive [inhibitor, single point]	–
CC(=O)OCC(=O)C1(O)CCC2C3CCC4=CC(=O)C=CC4(C)C3(F)C(O)CC21C (stereo not given)	–	inactive: -7.64%
COc1ccccc1OCC(=O)N(Cc1nc(-c2ccc(Cl)cc2)no1)C(C)C	inconclusive [inhibitor, single point]	–
COc1cc(NS(=O)(=O)c2ccc(N=Cc3c(C)[nH]n(-c4ccccc4)c3=O)cc2)nc(OC)n1	–	inactive: -16.6%
CCN(CC1CCCO1)C(=O)CCc1nnc(CCc2ccccc2)o1 (stereo not given)	–	inactive: -4.18%
CCOC(=O)c1ccc(OCC2c3cc(OC)c(OC)cc3CCN2C(=O)Cc2ccc(F)cc2)cc1 (stereo not given)	active: 23.1 µM	–
CCOc1ccc(C(=O)Nc2ccc(N3CCN(C(C)=O)CC3)cc2)cc1[N+](=O)[O-]	inconclusive [inhibitor, single point]	–
O=C(C1CCN(S(=O)(=O)c2ccc(Cl)s2)CC1)N1CCN(c2ccccc2)CC1	inconclusive [inhibitor, single point]	–
Cc1sc(NC(=O)CN(CCc2ccccc2)C(=O)C2CC2)c(C(N)=O)c1C	inconclusive [inhibitor, single point]	–
COc1ccccc1N1CCN(C(CNC(=O)c2ccco2)c2cccnc2)CC1 (stereo not given)	inconclusive [inhibitor, partial curve, poor fit]	–
O=C(NCC(c1ccc2c(c1)OCO2)N1CCN(c2ccccc2)CC1)c1ccccc1F (stereo not given)	active: 7.31 µM	–
Cc1ccc(-c2nnn3c2nc(NC(C)C)c2ccccc23)cc1	inconclusive [inhibitor, partial curve, poor fit]	–
Cc1ccc(NC(=O)c2c(Nc3ccccc3C)sc(C(=O)c3ccccc3)c2N)cc1	inconclusive [inhibitor, single point]	–
COc1ccc(CCNC(=O)c2ccccc2OCc2ccccc2)cc1	inconclusive [inhibitor, single point]	–
